These results are taken from PubChem BioAssay AID1346428 (National Center for Advancing Translational Sciences (NCATS), 2018).

Out of some 48,000 compounds screened, about 1,200 (2.5%) were called active. Roughly 2% stayed inconclusive and do not appear here.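 The calls were made as follows: active = activation of at least 60% and not above a set upper limit (about 1 call in 100 departs from these limits); inconclusive = activation of 40% to 60%, or above that upper limit; inactive = activation under 40%.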 This is one part of the list.

The test addresses Probable G-protein coupled receptor 32 (Homo sapiens) (UniProt O75388). Description: qHTS for Agonists of Human Resolvin D1 Receptor DRV1. Also: 0% is about no effect. The following applies: CHO-K1 GPR32 beta-arrestin PathHunter luminescence, 90 min; at 76.9 µM; active compounds read high; zero percent set by DMSO-only wells. The gist of the method: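 CHO-K1 cells stably expressing ProLink-tagged GPR32 and Enzyme Activator-tagged beta-arrestin were seeded at 2,500 cells/well overnight, exposed to compounds for 90 min at 37 °C, then read by beta-Gal complementation chemiluminescence after 1 h detection reagent.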
Sequence of UniProt O75388 (O75388 whole entry, looked up): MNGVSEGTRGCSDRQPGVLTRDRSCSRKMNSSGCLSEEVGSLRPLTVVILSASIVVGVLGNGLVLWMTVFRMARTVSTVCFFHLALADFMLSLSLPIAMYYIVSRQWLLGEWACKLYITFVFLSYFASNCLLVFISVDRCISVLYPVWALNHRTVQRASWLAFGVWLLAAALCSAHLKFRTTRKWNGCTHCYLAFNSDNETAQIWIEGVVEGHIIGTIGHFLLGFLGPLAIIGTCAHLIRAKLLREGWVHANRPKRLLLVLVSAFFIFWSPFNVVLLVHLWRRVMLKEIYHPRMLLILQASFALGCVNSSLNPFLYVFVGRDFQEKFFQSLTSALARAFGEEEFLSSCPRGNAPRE
As for `O=C(Nc1cccs1)Nc1cc(C(F)(F)F)ccc1Cl`, the activation is inactive: 10.6%.
Then `Cc1ccc(Cl)cc1N1CCN(C(=O)c2cnc(N3CCOCC3)c3ccccc23)CC1`, with inactive: -25%; and `Cc1cc(C)c(NC(=O)C2CCN(c3nc4ccccc4[nH]3)CC2)c(C)c1`, with inactive: -9.97%.
On to `CCOc1ccc(-n2c(Cc3ccccc3)nnc2SCc2nc(-c3ccccc3OC)no2)cc1`, for which the activation was inactive: -33.3%.
As for `CN1CCN(C(CNC(=O)c2cccc(F)c2)c2ccc3c(c2)OCO3)CC1` (stereo not drawn), the figure is inactive: 7.35%.
Consider `CCOc1ccc(CCNC(=O)CCc2c(C)nc3c4c(C)cc(C)nc4nn3c2C)cc1`, for which the activation is inactive: -17.7%.
As for `COC(=O)c1sccc1S(=O)(=O)N1CCN(c2ccccc2)CC1`, the figure is inactive: -6.89%; as for `COc1ccccc1C1C=C(c2ccc(F)cc2)Nc2nc(-c3ccc(Cl)cc3)nn21` (stereo not drawn), inactive: -17.1%; as for `CCN(CC)S(=O)(=O)c1ccc2c(c1)N(CC(=O)NCCCN1CCN(c3ccccc3F)CC1)C(=O)CO2`, inactive: -16.6%.
For the compound `COc1cccc(NC(=O)NCc2ccc3c(c2)CCN3C(=O)c2ccccc2)c1`, the activation was inactive: 15.9%.
Then `Cc1cccc(C(=O)Nc2sc3c(c2C(=O)NCc2ccco2)CCCC3)c1`, with inactive: -1.32%; and `Cc1ccc2[nH]c(=O)c3cc(C(=O)N4CCN(c5ccccc5)CC4)sc3c2c1`, with inactive: -34.9%.
On to `CC(C)c1ccc(C2N3CC4(C)CN2CC(c2ccccc2)(C3)C4=O)cc1` (stereo not drawn), for which the activation was inactive: 3.86%.
Then `CCc1ccc(NC(=O)c2cc(C(C)=O)n3ccccc23)cc1`, with inactive: -19.3%; and `CCc1nn(-c2ccccc2)c2nc(-c3ccccc3OC)c3cc(OC)c(OC)cc3c12`, with inactive: -5.26%; and `CCOC(=O)c1scc(-c2ccccc2)c1S(=O)(=O)Nc1ccccc1F`, with inactive: -64.2%.
As to `Clc1cccc(N2CCN(c3ncnc4c3nc3n4CCCCC3)CC2)c1`, the activation was inactive: 32.4%.
Consider `CCCc1nn2c(=O)cc(COC(=O)c3cccc(NC(=O)COc4ccc(F)cc4)c3)nc2s1`, for which the activation is inactive: -18.7%.
As for `CCCCN1C(=O)c2[nH]nc(-c3ccccc3O)c2C1c1cccc(OCc2ccccc2)c1` (stereo not drawn), the figure is inactive: 20.7%; as for `O=C(Cn1c(=O)oc2cc(S(=O)(=O)N3CCCCC3)ccc21)Nc1cccc(Cl)c1`, inactive: 35.6%; as for `O=C(O)c1cc(NC2(c3ccccc3)C(=O)c3ccccc3C2=O)ccc1Cl`, inactive: -17.8%.
For `Cc1cc(C)c(Cn2c3ccccc3c3cnn(CC(=O)NC4CCC(C)CC4)c(=O)c32)c(C)c1` (stereo not drawn), the activation was inactive: -14.9%.
For `CC1(C)CCC(NC(=O)[C@@H](N)CCC(=O)O)CC1`, the activation was inactive: -4.86%.
